Measured values: the supplement of paper PMC3334620
The full ranking holds about 33,000 sequences; the median of “E-score (-0.5 to 0.5)” is about -0.017, and the highest 2% start at about 0.3. The list shows a part of the results.

Molecular target: T1, Sut1 (UniProt P53032)
T1 sequence: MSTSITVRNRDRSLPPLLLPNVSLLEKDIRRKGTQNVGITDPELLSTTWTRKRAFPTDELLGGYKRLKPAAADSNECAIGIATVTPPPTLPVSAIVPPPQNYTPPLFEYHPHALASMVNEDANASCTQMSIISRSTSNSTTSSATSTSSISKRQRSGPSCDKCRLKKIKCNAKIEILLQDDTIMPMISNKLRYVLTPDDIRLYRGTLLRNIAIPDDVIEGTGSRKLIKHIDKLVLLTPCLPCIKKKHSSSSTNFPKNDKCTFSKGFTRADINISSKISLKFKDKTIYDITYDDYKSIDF
Test: PBM E-score (8-mer binding enrichment) (E-score (-0.5 to 0.5)); higher = stronger / more preferred TF binding; most listed sequences are background and not binding sites
Conditions: protein concentration: 200 nM; construct: GST-full length
Procedure, shortened: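 Masliner-normalised scans of fluorescent anti-GST signal were the basis for scoring. That signal came from GST-tagged yeast transcription factors applied at about 100-200 nM to double-stranded universal all-10-mer Agilent arrays on fresh or once-stripped slides. Each ungapped eight-base word, pooled with its reverse complement, received an E-score from the Universal PBM Analysis Suite.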

Sequence	PBM E-score
ACATCTAC	0.216
GGGTTCGA	-0.0735
CCCTCTCG	-0.242
CCAGGCAC	-0.197
CTCATTGC	-0.0785
GAATTTCA	0.25
AGCCTCCA	-0.24
ATTAGATA	0.175
TTCGGAAA	0.252
CAACCAAC	-0.158
TAGCGTAA	0.0517
AGGACGGG	-0.232
CCTGACGA	-0.245
CGCCCTTC	-0.0609
CTAGCCTA	0.0691
GGTACAAC	0.107
AGTATTGC	-0.0539
CTCTGCGC	-0.163
CCCGCTAG	-0.222
CAGAGTTC	0.0113
GCTAAAAC	0.0184
CGCCTCAC	0.0325
GGTGTCAA	-0.195
GAACTTCA	0.0556
GAGATAGC	0.0275

Sequence	PBM E-score
AGTGCCGA	0.00087
CGGTATTC	0.235
CCAGATAG	-0.192
AAAGTTAT	0.281
GGTATGAA	0.114
AAGATTGC	0.0822
CTGCGTGA	0.0757
GGGTTGCA	-0.0498
ATTATATC	0.262
CTCGAGTC	-0.144
CATGCACC	-0.116
GAGCCCAA	-0.0712
ATGGAGAC	-0.0343
ATCTCGTA	0.042
GCTAGCTA	-0.158
CGAGGTGC	0.0682
AACGGAGT	0.478
ACGTAAGC	-0.19
TACTAGAA	0.164
GGTTAGAA	-0.104
CAAGGGTC	-0.0764
GGCTCTAA	-0.0767
AGCAAATA	0.2
CAGCCATG	-0.265
CCCGCTTA	-0.182

Sequence	PBM E-score
GCAGCTCC	0.00727
AGGTCAAG	-0.0505
CGTAACGC	-0.0588
CGAAATAC	0.215
GTTGCGTA	0.0944
AAGCTATA	0.0434
GGTGAAAC	0.0555
AGTAAGAC	0.0151
ACATGACC	-0.173
GTACGAGA	0.0281
TCAGATCA	-0.105
CTTTTATC	0.26
GAAACTCC	0.345
CTTGTCCC	-0.0919
ATTTCGAA	0.313
CAGGCGAC	-0.165
AATGCTAA	0.0726
GGCGATTA	-0.0594
AGCAAAGG	0.0533
AGTGTGGG	0.0135
GGTTAAGA	0.0619
ACGCAGAG	-0.0944
GCCGTCGC	-0.177
CTATCTGA	-0.175
CAGGTCAC	-0.398

Sequence	PBM E-score
CGATTTCC	0.193
ACGCTTTA	-0.14
TAATCTGA	0.126
CCCACCGA	-0.0673
GGCAGATA	-0.119
GGACAGGA	-0.0585
ACGCTAAG	-0.159
ATCACGAT	-0.0864
GTAGTACA	-0.131
GTGTGAAA	0.122
ATCGAAGG	0.115
AGTAACTC	0.115
GTCCCACA	-0.153
ATGTGCTA	0.112
AACTTGAG	-0.0454
CGACCATC	-0.0758
CATCCACA	-0.0595
ACCCCAAT	-0.186
AATTCCGG	0.337
AGTCAGTC	-0.159
GAGCTAAC	0.14
ACTCAACC	0.0622
GCCGGCCA	0.102
CCCATCCA	-0.0982
CGATGCCG	0.0208

Sequence	PBM E-score
CGAGCGGC	0.0427
CAAAGCAA	0.053
GTGAGACA	-0.0481
ATCCTATC	0.0863
GCCAAACC	0.0193
AGTCCTTC	-0.18
ATAGGAAA	0.174
GCTCCTCA	-0.0893
ATAATTTC	0.242
AGTCAGTA	0.0721
TATACTCA	0.136
CCGAAGAA	0.233
ACGAACCC	-0.0389
AATCACGA	-0.13
CAACAGTC	0.0186
CGGTTTCC	0.0236
CTCGTATC	0.145
AGGTACAT	-0.13
CCCTAGGA	-0.136
TCGGACAA	0.367
ATGGTCCA	-0.2
GACATCGC	-0.0981
ATAAGGTG	0.0674
CGTGCATA	0.0332
TTAGATAA	0.0583

Sequence	PBM E-score
CCCCATCC	-0.17
CACAAAAC	0.156
GAATTATC	0.0676
CTGTCTGA	-0.082
ATGTCCGC	0.282
TCTGTCAA	0.0411
TGAGCAAA	0.0483
TCGATCAA	-0.00575
AGAACGCA	0.0182
AGTGCTAC	-0.187
CAATAACA	0.0715
CCAAGGAC	-0.156
CAAGCTGC	-0.0921
AGAATTGC	-0.0537
ACAGACAC	-0.109
GCTCATCA	0.0461
CCTACATC	0.118
GCCATCCC	-0.093
CGTGCTTA	0.015
ACTATTCT	0.0103
CCGGCGTC	0.0977
ACCGCATA	0.136
AGTTGACA	0.135
CAATATAC	0.144
CTCGCGTC	-0.0648

Sequence	PBM E-score
ACACCGAT	0.0445
GCGACTCA	-0.112
GAAAATTA	0.238
GGAACAAA	0.266
CAGGCTCG	-0.102
CTAACTAC	0.00799
GTCCCAAA	-0.0949
TCACGTGA	0.0117
GTAGGACA	-0.0253
CCGACGGA	0.225
CATTTGAC	0.078
ACGGCAAT	0.127
CTTGAGCA	-0.21
ACAACGGG	0.0387
GCTTACTA	0.0513
AGAATCAC	-0.0266
CCACGTCG	-0.0653
ACTCACCG	-0.0689
CCAGGCTA	-0.386
CGACTAGA	0.0341
CTCGTGCA	-0.071
CGGAATCC	0.094
CGCGATAC	-0.127
AATCCATA	0.108
CGTAGGAC	-0.151

Sequence	PBM E-score
CCTTTCTA	-0.00952
GACACAAA	0.0952
ACCAGGAC	-0.00934
ACAAGAAA	0.218
AGAATGAG	-0.00389
AGGCGAGA	-0.259
ACAGATCG	-0.0379
AAGCCTAG	-0.183
CTGCACGC	-0.343
ATCTGTTG	-0.0365
TGAGACCA	-0.207
CACGTTAA	-0.0328
GCGCTATA	-0.094
AGCTGCGG	-0.232
AGTCCCGG	0.1
CTTAACAA	0.145
GAAACCCA	0.11
AAAGCTCA	-0.0115
AGACAATC	0.09
ATGGGCAC	-0.0249
AGGATGAA	-0.126
GAGCGGGC	-0.286
ACAATGGG	0.117
GCGCTCAC	-0.107
CGTCTGTA	-0.0311

Sequence	PBM E-score
AGTATAAA	0.302
CCCGACAA	0.173
TACCGGAA	0.298
CTCGGTAC	-0.0712
CCCGCGTA	-0.112
CTAGGACC	-0.157
AGTAGAGA	-0.0294
AGTGGAGA	0.00138
CTCACGAC	-0.29
AAGGCTGG	-0.146
CCCAAAAG	-0.0557
ATAGGGGG	-0.303
ATAGTGGC	-0.189
TACGCGCA	0.0105
AATACTCA	0.189
ACGACAGT	0.0864
GTCCCAGA	-0.324
AGTCTGGC	-0.306
CGAACATC	0.139
CCTCAGAG	-0.247
CCCGTGCA	-0.167
AGGTGTGC	-0.224
ACATTATG	0.184
AGCCTTAG	-0.00896
GATTGAAA	0.303

Sequence	PBM E-score
CTAGTATC	-0.0607
ACATGTTA	0.193
CATAAGCA	0.00608
TAACACCA	0.0761
AACATACT	0.22
CGACGCTA	-0.089
CTATATGC	0.198
CCGATAAG	0.111
GATCTAGC	-0.0743
AGCCGAGG	-0.0581
AATTTGAA	0.247
TCTCGAGA	0.108
AGATCAAT	0.0727
AGGTCTAT	-0.0267
GCTTATAA	0.186
ACCGCAGA	-0.164
CGTTGACC	-0.224
CAGCTGGC	-0.093
CCAATGGA	-0.108
GAAGCATC	-0.0851
AGTCAGAT	0.0409
AACCAGCT	-0.0518
CTGGAACC	-0.168
ACCCCAGG	-0.372
CTTAACGC	0.00079

Sequence	PBM E-score
AGGCTATG	-0.101
CCAGGCGC	-0.211
GAGTTAAC	0.104
CGTGATTA	0.0962
ACGACGAC	-0.125
CAGTGCGC	-0.321
ATGTGTAA	0.139
GCTCGTCC	-0.109
GAACATCA	0.00284
GCCCTATA	-0.213
CTTGACAC	-0.0991
ATCCGGCC	0.135
ACGTGCGC	-0.0634
TAAAAAGA	0.174
TTCCCAAA	0.135
CAACGCCA	-0.0828
CATGCTGA	-0.116
GTTCTGTA	0.157
CATACTGG	-0.126
ATACGAGC	0.0241
AGAACATA	0.242
ACTTCAGG	0.12
ATCATACG	0.157
AAGGAACG	-0.0932
ATACTGAA	0.0375

Sequence	PBM E-score
AACACCTG	-0.0429
AGCCGCCG	0.0448
CACATCGA	-0.0466
AAGAACAT	0.239
CAAAGTTG	-0.0132
GTCCGAGA	0.428
ATATTCGC	0.0593
AAGGGGAT	-0.136
TCCCCGCA	-0.0536
CGGCTAGC	-0.112
AGTCTTGG	-0.0295
CATTGGCA	-0.116
GGCCAAAC	0.0247
AACTCACT	-0.151
CAGATAGG	-0.0738
AGCGATAC	-0.184
TCATGCAA	0.0478
CTGAATAC	0.0418
AAGTCGAT	-0.00629
AAATCTCC	0.148
CAGAAAAG	-0.00307
CAATTCGG	0.202
CTGGAGAA	-0.147
ACTCATCT	0.0709
GATACCCC	-0.0838

Sequence	PBM E-score
AATCCAGC	-0.00361
CCTATGTC	-0.0366
CCACACTA	0.154
AGCCCCAA	-0.358
AACTGTTC	0.223
GAAATCGC	0.1
ACGCGCAG	-0.294
CCCCCTAG	-0.276
CCTCAAGC	-0.158
GTGGACTA	-0.0903
GGCAGGCA	-0.0593
CAAATAAA	0.22
ACGCGCCT	-0.0499
GTGCGGGA	-0.0127
AAGCGGTG	-0.244
AAGGTATT	0.199
CCCATGAC	-0.149
CAATAGTC	-0.0228
ACCGGATA	0.0607
AAAACGTT	0.165
ATGTTACC	0.108
CTAATGAG	-0.0573
ATAGCACG	-0.00069
CCGCACGA	0.0172
AGTGCGCG	-0.0893

Sequence	PBM E-score
GTGATCAA	0.0378
AGCTCATA	0.0944
TTCGTAAA	0.232
AGGGAGCA	-0.209
AGCATTGA	-0.0961
ACACAACT	-0.0304
AAGCACTT	-0.0445
AGAGCCAC	-0.0775
AAGAGGCG	-0.0418
CTGTAGGA	-0.0619
CGTGACCA	-0.0488
GCCTAGCC	-0.0647
GCCCGTGA	-0.233
AATAGTCG	0.0508
GCGAGCCC	-0.231
CCTAGATA	-0.0911
CGGTAACA	0.277
CTTTATGC	0.165
GCGTTAAC	0.0954
